Like-named read-outs stand apart in the source and are kept apart here. No constants are given. Whether binding was seen depends on the method and setting. In cells and extracts the contact can be indirect. Some entries that bind do so weakly or less than the wild type. For some of these results: Tags and fused reporters may be left off the sequences shown. Values belong to the molecule of their own block, whether it stands above or below them.
What was measured:
[1] = biological target: RIESKE (human (endogenous in HEK293T)) (UniProt P47985); assay: co-IP; immunoisolation with anti-RIESKE antibody from purified mitochondria solubilised in digitonin-containing buffer; western blot
SMIM4^FLAG (human) [2] = biological target: T1, SMIM4^FLAG (human) (UniProt Q8WVI0); assay: co-IP; anti-FLAG M2 agarose; mitochondria lysed in 1% digitonin, 150 mM NaCl, 20 mM MgCl2, 50 mM Tris-HCl pH 7.4, 4°C; 10 washes with 0.3% digitonin; FLAG peptide elution; western blot; wild-type mitochondria as control
T1 sequence: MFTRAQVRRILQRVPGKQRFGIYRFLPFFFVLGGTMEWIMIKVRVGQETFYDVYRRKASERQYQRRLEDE

By UniProt entry, the sequences of proteins in these tests, tags left out. Residues count along the entry.
UniProt P47985, residues 79-274: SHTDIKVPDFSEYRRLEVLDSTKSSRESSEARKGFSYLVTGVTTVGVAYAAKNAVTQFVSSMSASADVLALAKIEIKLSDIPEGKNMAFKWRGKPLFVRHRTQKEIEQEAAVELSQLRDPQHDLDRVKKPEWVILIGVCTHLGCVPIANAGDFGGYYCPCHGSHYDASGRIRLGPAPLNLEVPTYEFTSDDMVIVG
UniProt O14949: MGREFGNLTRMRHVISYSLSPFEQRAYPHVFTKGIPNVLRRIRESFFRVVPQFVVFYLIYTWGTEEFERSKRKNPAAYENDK
UniProt Q9Y4W6, residues 67-797: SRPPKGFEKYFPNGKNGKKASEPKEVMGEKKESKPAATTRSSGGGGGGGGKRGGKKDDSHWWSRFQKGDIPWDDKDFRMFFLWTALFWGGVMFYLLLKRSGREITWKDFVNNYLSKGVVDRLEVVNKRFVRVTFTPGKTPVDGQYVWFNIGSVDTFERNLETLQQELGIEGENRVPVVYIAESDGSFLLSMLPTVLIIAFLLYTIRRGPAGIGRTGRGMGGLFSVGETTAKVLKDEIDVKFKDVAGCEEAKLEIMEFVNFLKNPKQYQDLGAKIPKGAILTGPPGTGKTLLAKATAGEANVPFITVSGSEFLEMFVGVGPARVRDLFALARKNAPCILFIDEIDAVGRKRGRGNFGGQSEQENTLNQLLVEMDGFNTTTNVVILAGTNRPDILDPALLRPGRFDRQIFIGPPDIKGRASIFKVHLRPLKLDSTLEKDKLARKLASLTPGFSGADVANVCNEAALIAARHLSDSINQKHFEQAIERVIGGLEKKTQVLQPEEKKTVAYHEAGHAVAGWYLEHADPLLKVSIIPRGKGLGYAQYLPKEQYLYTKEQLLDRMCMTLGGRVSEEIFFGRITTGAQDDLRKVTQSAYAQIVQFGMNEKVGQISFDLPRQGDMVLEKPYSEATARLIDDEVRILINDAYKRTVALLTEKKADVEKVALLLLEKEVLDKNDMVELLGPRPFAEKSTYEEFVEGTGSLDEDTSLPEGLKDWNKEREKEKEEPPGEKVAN
UniProt P00156: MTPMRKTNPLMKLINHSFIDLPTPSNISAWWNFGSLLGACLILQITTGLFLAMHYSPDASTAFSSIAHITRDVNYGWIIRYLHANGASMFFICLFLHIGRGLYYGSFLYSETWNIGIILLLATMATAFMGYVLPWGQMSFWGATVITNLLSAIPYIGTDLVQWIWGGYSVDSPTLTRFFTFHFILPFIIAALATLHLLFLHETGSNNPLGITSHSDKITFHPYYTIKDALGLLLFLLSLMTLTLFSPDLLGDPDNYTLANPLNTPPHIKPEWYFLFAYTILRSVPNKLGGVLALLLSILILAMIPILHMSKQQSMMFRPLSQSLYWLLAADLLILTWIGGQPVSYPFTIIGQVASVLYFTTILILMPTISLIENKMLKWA

UQCC1^FLAG (human) [3] = biological target: T2, UQCC1^FLAG (human) (UniProt Q9NVA1); assay: as above
T2 sequence: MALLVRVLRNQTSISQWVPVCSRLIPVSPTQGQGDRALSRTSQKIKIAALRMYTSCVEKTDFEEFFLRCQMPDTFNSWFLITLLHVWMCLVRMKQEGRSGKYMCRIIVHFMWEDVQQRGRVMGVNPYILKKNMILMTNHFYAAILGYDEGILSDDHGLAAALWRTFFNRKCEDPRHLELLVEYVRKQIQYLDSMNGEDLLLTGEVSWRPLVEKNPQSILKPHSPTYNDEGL

UQCC2^FLAG (human) [4] = biological target: T3, UQCC2^FLAG (human) (UniProt Q9BRT2); assay: as above
T3 sequence: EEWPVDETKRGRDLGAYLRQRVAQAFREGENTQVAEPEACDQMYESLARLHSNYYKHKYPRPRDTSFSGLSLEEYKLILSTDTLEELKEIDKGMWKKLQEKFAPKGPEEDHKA

UQCRQ^FLAG [5] = biological target: UQCRQ^FLAG (UniProt O14949); assay: as above
UQCC1^FLAG (human) [6] = biological target: T2, UQCC1^FLAG (human); assay: co-IP + native gel or EMSA; anti-FLAG immunoisolation from solubilised mitochondria, natively eluted complexes separated by BN-PAGE and second dimension SDS-PAGE, western blot; for UQCC1^FLAG from control and C12ORF73-depleted (siRNA) cells
[7] = biological target: C12ORF73 (human (endogenous in HEK293T)) (UniProt Q69YU5); assay: co-IP; anti-SMIM4 or anti-C12ORF73 antibody cross-linked to protein A-Sepharose, control IgG; cellular extracts after 1 hr [35S]methionine labelling of mitochondrial translation products (emetine); elution with 0.1 M glycine pH 2.8; digital autoradiography and immunodetection
[8] = biological target: T4, SMIM4 (human (endogenous in HEK293T)) (UniProt Q8WVI0); assay: as above
T4 sequence: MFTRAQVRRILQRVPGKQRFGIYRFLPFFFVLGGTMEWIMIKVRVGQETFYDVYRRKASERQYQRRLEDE

C12ORF73^FLAG (human) [9] = biological target: C12ORF73^FLAG (human) (UniProt Q69YU5); assay: co-IP; anti-FLAG M2 agarose; mitochondria lysed in 1% digitonin, 150 mM NaCl, 20 mM MgCl2, 50 mM Tris-HCl pH 7.4, 4°C; 10 washes with 0.3% digitonin; FLAG peptide elution; western blot; wild-type mitochondria as control
UQCC3^FLAG (human) = biological target: T5, UQCC3^FLAG (human) (UniProt Q6UW78); assay: as above
T5 sequence: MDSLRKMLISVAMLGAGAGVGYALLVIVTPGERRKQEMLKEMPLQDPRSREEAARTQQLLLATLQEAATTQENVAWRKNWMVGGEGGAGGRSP

UQCC1^FLAG (human) [10] = biological target: T2, UQCC1^FLAG (human); assay: co-IP + native gel or EMSA; anti-FLAG immunoisolation from solubilised mitochondria, natively eluted complexes separated by BN-PAGE and second dimension SDS-PAGE, western blot; for UQCC1^FLAG from control and C12ORF73-depleted (siRNA) cells; remark: listed apart in the source
C12ORF73^FLAG (human) [11] = biological target: C12ORF73^FLAG (human) (UniProt Q69YU5); assay: as above
C12ORF73^FLAG (human) [12] = biological target: C12ORF73^FLAG (human) (UniProt Q69YU5); assay: co-IP; anti-FLAG M2 agarose; mitochondria lysed in 1% digitonin, 150 mM NaCl, 20 mM MgCl2, 50 mM Tris-HCl pH 7.4, 4°C; 10 washes with 0.3% digitonin; FLAG peptide elution; western blot; wild-type mitochondria as control; remark: listed apart in the source
UQCC1^FLAG (human) [13] = biological target: T2, UQCC1^FLAG (human); assay: as above; remark: listed apart in the source
UQCC2^FLAG (human) [14] = biological target: T3, UQCC2^FLAG (human); assay: as above; remark: listed apart in the source
UQCRQ^FLAG [15] = biological target: UQCRQ^FLAG (UniProt O14949); assay: as above; remark: listed apart in the source
MITRAC12^FLAG (human) = biological target: T6, MITRAC12^FLAG (human) (UniProt Q9Y2R0); assay: as above
T6 sequence: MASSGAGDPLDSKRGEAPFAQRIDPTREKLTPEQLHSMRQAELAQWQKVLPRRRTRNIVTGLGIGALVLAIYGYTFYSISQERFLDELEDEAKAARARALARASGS

C12ORF62^FLAG (human) = biological target: T7, C12ORF62^FLAG (human) (UniProt Q96I36); assay: as above
T7 sequence: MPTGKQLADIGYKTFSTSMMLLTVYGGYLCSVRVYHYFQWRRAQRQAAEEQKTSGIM

MITRAC7^FLAG (human) = biological target: T8, MITRAC7^FLAG (human) (UniProt Q8N5G0); assay: as above
T8 sequence: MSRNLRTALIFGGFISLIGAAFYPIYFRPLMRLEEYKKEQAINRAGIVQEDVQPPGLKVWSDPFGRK

CMC1^FLAG = biological target: T9, CMC1^FLAG (UniProt Q7Z7K0); assay: as above
T9 sequence: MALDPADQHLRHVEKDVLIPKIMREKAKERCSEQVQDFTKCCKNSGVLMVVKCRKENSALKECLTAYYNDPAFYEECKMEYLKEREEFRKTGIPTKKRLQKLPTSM

SMIM4^FLAG (human) [16] = biological target: T1, SMIM4^FLAG (human); assay: as above; remark: listed apart in the source

Molecule: C12ORF73 (from UniProt Q69YU5 1-71)
- binding [1]: no binding
- binding (SMIM4^FLAG (human) [2]): binds
- binding (UQCC1^FLAG (human) [3]): binds
- binding (UQCC2^FLAG (human) [4]): binds
- binding (UQCRQ^FLAG [5]): binds weakly

Molecule: AFG3L2 (from UniProt Q9Y4W6 67-797)
- binding (SMIM4^FLAG (human) [2]): binds

Molecule: RIESKE (from UniProt P47985 79-274)
- binding (UQCC1^FLAG (human) [3]): no binding
- binding (UQCC2^FLAG (human) [4]): no binding
- binding (C12ORF73^FLAG (human) [9]): no binding
- binding (UQCC3^FLAG (human)): binds

B2: SMIM4 (protein, UniProt Q8WVI0 1-70)
chain: MFTRAQVRRILQRVPGKQRFGIYRFLPFFFVLGGTMEWIMIKVRVGQETFYDVYRRKASERQYQRRLEDE
- binding [1]: no binding
- binding (C12ORF73^FLAG (human) [11]): binds
- binding (UQCC1^FLAG (human) [13]): binds
- binding (UQCC2^FLAG (human) [14]): binds
- binding (UQCRQ^FLAG [15]): binds

Other lines, results leading:

- binding (UQCC1^FLAG (human) [6]): binds
- binding [7]: binds
- binding [8]: binds
Molecule: cytochrome b (CYTB) (from UniProt P00156 1-380)

- binding (UQCC1^FLAG (human) [10]): binds
- binding (C12ORF73^FLAG (human) [11]): binds
- binding (C12ORF73^FLAG (human) [12]): binds
B1: UQCC2 (protein, UniProt Q9BRT2 14-126)
chain: EEWPVDETKRGRDLGAYLRQRVAQAFREGENTQVAEPEACDQMYESLARLHSNYYKHKYPRPRDTSFSGLSLEEYKLILSTDTLEELKEIDKGMWKKLQEKFAPKGPEEDHKA

- binding (MITRAC12^FLAG (human)): binds
- binding (C12ORF62^FLAG (human)): binds
- binding (MITRAC7^FLAG (human)): binds weakly
- binding (CMC1^FLAG): no binding
B3: TMEM223 (protein, UniProt A0PJW6 1-202)
chain: MAAPWRRWPTGLLAVLRPLLTCRPLQGTTLQRDVLLFEHDRGRFFTILGLFCAGQGVFWASMAVAAVSRPPVPVQPLDAEVPNRGPFDLRSALWRYGLAVGCGAIGALVLGAGLLFSLRSVRSVVLRAGGQQVTLTTHAPFGLGAHFTVPLKQVSCMAHRGEVPAMLPLKVKGRRFYFLLDKTGHFPNTKLFDNTVGAYRSL

- binding [1]: binds
B4: UQCC3 (protein, UniProt Q6UW78 1-93)
chain: MDSLRKMLISVAMLGAGAGVGYALLVIVTPGERRKQEMLKEMPLQDPRSREEAARTQQLLLATLQEAATTQENVAWRKNWMVGGEGGAGGRSP

- binding [1]: no binding
- binding (C12ORF73^FLAG (human) [11]): binds
- binding (SMIM4^FLAG (human) [16]): binds
- binding (C12ORF73^FLAG (human) [12]): binds
- binding (UQCRQ^FLAG [15]): binds weakly
B5: UQCC1 (protein, UniProt Q9NVA1 1-299)
chain: MALLVRVLRNQTSISQWVPVCSRLIPVSPTQGQGDRALSRTSQWPQMSQSRACGGSEQIPGIDIQLNRKYHTTRKLSTTKDSPQPVEEKVGAFTKIIEAMGFTGPLKYSKWKIKIAALRMYTSCVEKTDFEEFFLRCQMPDTFNSWFLITLLHVWMCLVRMKQEGRSGKYMCRIIVHFMWEDVQQRGRVMGVNPYILKKNMILMTNHFYAAILGYDEGILSDDHGLAAALWRTFFNRKCEDPRHLELLVEYVRKQIQYLDSMNGEDLLLTGEVSWRPLVEKNPQSILKPHSPTYNDEGL
